PMC4336329 (PLoS ONE, 2015)
The whole screen tested about 310,000 compounds, of which about 2,200 (0.71%) showed an effect of 50% or more. The effect is printed as a negative number. The list shows a part of the results.

Biological target: human ether-à-go-go-related gene (hERG) potassium channel (human, UniProt Q12809)
Assay: primary screen, population patch clamp on CHO cells stably expressing hERG

Sequence of human ether-à-go-go-related gene (hERG) potassium channel (Q12809 whole entry, looked up): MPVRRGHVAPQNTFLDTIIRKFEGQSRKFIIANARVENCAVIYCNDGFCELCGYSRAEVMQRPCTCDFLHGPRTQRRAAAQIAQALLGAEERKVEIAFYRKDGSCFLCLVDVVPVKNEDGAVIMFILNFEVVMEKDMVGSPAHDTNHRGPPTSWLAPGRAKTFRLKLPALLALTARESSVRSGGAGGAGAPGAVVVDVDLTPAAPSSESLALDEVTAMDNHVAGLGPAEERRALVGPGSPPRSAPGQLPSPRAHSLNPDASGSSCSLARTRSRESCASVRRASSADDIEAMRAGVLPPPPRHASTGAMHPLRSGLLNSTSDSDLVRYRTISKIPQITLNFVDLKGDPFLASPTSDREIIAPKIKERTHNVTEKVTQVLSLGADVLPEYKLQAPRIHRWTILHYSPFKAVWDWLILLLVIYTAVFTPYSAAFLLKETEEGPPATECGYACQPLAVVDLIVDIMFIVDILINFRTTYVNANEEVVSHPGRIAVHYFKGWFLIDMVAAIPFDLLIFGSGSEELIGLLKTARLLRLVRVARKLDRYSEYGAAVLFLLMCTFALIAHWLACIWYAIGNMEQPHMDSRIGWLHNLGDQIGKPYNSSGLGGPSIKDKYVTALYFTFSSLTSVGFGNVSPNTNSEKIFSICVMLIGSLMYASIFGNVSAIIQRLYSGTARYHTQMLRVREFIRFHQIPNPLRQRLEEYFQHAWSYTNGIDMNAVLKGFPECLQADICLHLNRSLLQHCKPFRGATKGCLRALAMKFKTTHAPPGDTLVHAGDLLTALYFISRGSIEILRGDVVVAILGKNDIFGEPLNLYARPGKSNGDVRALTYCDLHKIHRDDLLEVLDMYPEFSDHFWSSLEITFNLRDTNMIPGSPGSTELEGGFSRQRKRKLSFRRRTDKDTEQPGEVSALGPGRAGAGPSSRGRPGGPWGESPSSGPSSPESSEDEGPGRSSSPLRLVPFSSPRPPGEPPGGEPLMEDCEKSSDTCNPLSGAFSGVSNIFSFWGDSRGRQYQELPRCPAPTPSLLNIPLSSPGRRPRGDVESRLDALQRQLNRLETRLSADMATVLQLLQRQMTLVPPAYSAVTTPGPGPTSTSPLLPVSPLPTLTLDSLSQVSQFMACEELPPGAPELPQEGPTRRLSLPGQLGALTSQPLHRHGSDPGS

Compared with CCCC(=O)NC(Oc1ccc(Cl)cc1Cl)C(Cl)(Cl)Cl (stereo not shown), CCOc1ccccc1NC(=O)CCn1ccnc1 is lower in “hERG current change (%, negative = inhibition) at 1uM” value: 20.4% for the first, 13.9% for the second.

Going from COc1ccc(C)cc1-n1nnnc1SCC(=O)NC1CC1 to COc1ccc(CNC(=O)CSc2ncn[nH]2)cc1, the “hERG current change (%, negative = inhibition) at 1uM” value falls from 11.3% to -9.54%.

Going from O=C(CN(c1ccc(Cl)cc1)S(=O)(=O)c1ccc(Cl)c([N+](=O)[O-])c1)NCCc1ccccc1 to O=C(Nc1ccccc1C(=O)O)c1cc(S(=O)(=O)Nc2cccc(F)c2)ccc1Cl, the “hERG current change (%, negative = inhibition) at 1uM” value rises from 10.9% to 14.4%.

Compared with O=C(Nc1ccc2c(c1)C(=O)NC2=O)c1cccc(C(F)(F)F)c1, CC(C)CNC(=O)c1cccc(NC(=O)c2ccc3c(c2)C(=O)N(C)C3=O)c1 is lower in “hERG current change (%, negative = inhibition) at 1uM” value: 17% for the first, 5.43% for the second.

First: O=C(CN1C(=O)C(=O)N(Cc2ccccc2)C1=O)Nc1cc(Cl)cc(Cl)c1
Second: CCn1cnc2c1c(=O)n(CC(=O)Nc1ccc(C(N)=O)cc1)c(=O)n2Cc1ccccc1
The “hERG current change (%, negative = inhibition) at 1uM” value of the first is lower: 6.12% for the first, 12.3% for the second.

Going from O=C(CNS(=O)(=O)c1ccc(F)cc1)N1CCCCCC1 to CC(C)(CNS(=O)(=O)c1ccc2c(c1)OCCO2)N1CCOCC1.Cl, the “hERG current change (%, negative = inhibition) at 1uM” value falls from 14.6% to 10.8%.

Going from Cc1ccc(NC(=O)c2cc(-c3cccs3)on2)cc1C to CCC(=O)NC(=S)Nc1ccc(NC(=O)c2cc3ccccc3o2)c(OC)c1, the “hERG current change (%, negative = inhibition) at 1uM” value rises from 8.88% to 13.6%.

Compared with Cc1nn(-c2nc(-c3ccco3)cc(C(F)(F)F)n2)c(C)c1Cl, Cc1nn(C)cc1NC(=O)CCSc1nc(-c2ccco2)cc(C(F)(F)F)n1 is lower in “hERG current change (%, negative = inhibition) at 1uM” value: 3.73% for the first, 2.51% for the second.

Going from c1ccc(-n2ncc3c(NCCN4CCOCC4)ncnc32)cc1 to CCOc1ccccc1NC(=S)N(CCCN1CCOCC1)Cc1cn(C)c2ccccc12, the “hERG current change (%, negative = inhibition) at 1uM” value rises from -8.96% to 5.62%.

Going from CNC(=S)N(CCCO)Cc1cc2cc3c(cc2[nH]c1=O)OCO3 to O=c1[nH]c2cc3c(cc2cc1CN(CCO)S(=O)(=O)c1ccccc1Cl)OCCO3, the “hERG current change (%, negative = inhibition) at 1uM” value falls from 16.6% to 11.4%.

Going from O=C(CN1C(=O)c2ccccc2S1(=O)=O)c1ccc(OC(F)F)cc1 to CC(Oc1ccc2ccc(=O)oc2c1)C(=O)c1ccccc1 (stereo not shown), the “hERG current change (%, negative = inhibition) at 1uM” value rises from -10% to 0.0784%.

Compared with COc1ccc(-n2nnc3c(SCC(=O)N4CCCc5ccccc54)ncnc32)cc1, COc1ccc(C(=O)N/N=C/c2ccc(OC(=O)c3cccc4ccccc34)c([N+](=O)[O-])c2)cc1 is higher in “hERG current change (%, negative = inhibition) at 1uM” value: 6.31% for the first, 9.91% for the second.

First: CCCc1cc(=O)[nH]c(SCC(=O)N2CCN(S(=O)(=O)c3ccc(C)cc3)C2)n1
Second: Cc1ccc(C)c(N2CCN(C(=O)c3cc(S(=O)(=O)N4CCOCC4)ccc3F)CC2)c1
The “hERG current change (%, negative = inhibition) at 1uM” value of the first is higher: 10.2% for the first, 0.203% for the second.

Compared with CCCn1c(CC)nc([N+](=O)[O-])c1Sc1ccc(F)cc1, Cc1cc(=O)[nH]c(N/N=C/c2ccc(F)cc2)n1 is higher in “hERG current change (%, negative = inhibition) at 1uM” value: 3.48% for the first, 15.9% for the second.

First: CC(C)OP(=O)(OC(C)C)C(Nc1ccc([N+](=O)[O-])cc1)c1cccc([N+](=O)[O-])c1 (stereo not shown)
Second: COc1ccc(CN(C)C(C)C(=O)Nc2ccc([N+](=O)[O-])cc2Cl)cc1OC (stereo not shown)
The “hERG current change (%, negative = inhibition) at 1uM” value of the first is higher: -4.93% for the first, -6.27% for the second.

First: CCCOc1ccc(/C(O)=C2/C(=O)C(=O)N(CCCOC)C2c2ccncc2)cc1 (stereo not shown)
Second: CCOc1ccc(-n2c(=O)c3sccc3n(Cc3cccc([N+](=O)[O-])c3)c2=O)cc1
The “hERG current change (%, negative = inhibition) at 1uM” value of the first is lower: -7.78% for the first, 2.74% for the second.

Going from Cc1ccnc(NC(=O)CN2C(=O)c3ccccc3C2=O)c1 to Cn1ccnc1SCc1cc(=O)[nH]c2ccccc12, the “hERG current change (%, negative = inhibition) at 1uM” value rises from 5.12% to 19.2%.

Going from COc1ccccc1NC1=NC2(CCCC2)N=C(N)N1 to COc1ccccc1-c1c(C#N)c(N)nc2c1CCC2, the “hERG current change (%, negative = inhibition) at 1uM” value rises from 5.82% to 10.4%.

Going from C=C(C)COc1ccc(-c2ncncc2-c2ccc(Br)cc2)c(O)c1 to COc1ccc(C(=O)/C=C/Nc2cccc(O)c2)cc1, the “hERG current change (%, negative = inhibition) at 1uM” value rises from 11.7% to 12%.

Compared with COCCCNC(=O)c1cc2cc(Br)ccc2oc1=O, COc1c(Br)cc(Br)cc1/C=N/NC(=O)c1cccnc1 is higher in “hERG current change (%, negative = inhibition) at 1uM” value: 4.97% for the first, 7.26% for the second.

First: COC(=O)C1=C(c2cc3ccccc3o2)C[C@@H]2CC[C@H]1N2C(=O)NCc1cccc2ccccc12
Second: N#CCC(=O)N/N=C/c1cn(Cc2ccc3ccccc3c2)c2ccccc12
The “hERG current change (%, negative = inhibition) at 1uM” value of the first is lower: 6.68% for the first, 18.9% for the second.

Going from CSCCC(NS(=O)(=O)c1ccc2c(c1)OCCO2)C(=O)NCCc1ccccn1 (stereo not shown) to NC(=O)COc1ccccc1C1=NO[C@@](CC(=O)O)(C(=O)Nc2ccc3c(c2)OCCO3)C1, the “hERG current change (%, negative = inhibition) at 1uM” value rises from 10.9% to 12.5%.

Compared with Cc1ccc(NC=C(S(=O)(=O)c2ccccc2)S(=O)(=O)c2ccccc2)c(C)c1, Cc1c(NC(=O)C(C)OC(=O)/C=C/c2ccccc2)c(=O)n(-c2ccccc2)n1C (stereo not shown) is lower in “hERG current change (%, negative = inhibition) at 1uM” value: 13.8% for the first, 13.7% for the second.

First: COc1ccc(Cn2c(=S)[nH]c3ccsc3c2=O)cc1
Second: COc1ccc(-n2c(=O)[nH]c3cc(C(=O)NCCc4ccc(OC)c(OC)c4)ccc3c2=O)c(OC)c1
The “hERG current change (%, negative = inhibition) at 1uM” value of the first is lower: 2.05% for the first, 15.2% for the second.

First: Nc1ncn[nH]1
Second: COc1ccc(/C=N/NC(=O)Nc2nonc2N)cc1
The “hERG current change (%, negative = inhibition) at 1uM” value of the first is higher: 14.6% for the first, -1.78% for the second.

Going from O=C(CNS(=O)(=O)c1ccccc1)NCc1ccco1 to CCN(CC(=O)Nc1ccc(C)c(S(=O)(=O)N2CCOCC2)c1)Cc1ccccc1, the “hERG current change (%, negative = inhibition) at 1uM” value falls from 14.8% to 5.21%.

Compared with CC(C)(C)C(=O)OC/C(N)=N/OC(=O)c1ccc(Cl)cc1, C#CC(C)(C)NC(=O)c1ccc(-c2ccccc2F)cc1 is lower in “hERG current change (%, negative = inhibition) at 1uM” value: 8.08% for the first, 6.64% for the second.

Compared with CN1CCN2c3ncccc3Cc3ccccc3C2C1 (stereo not shown), c1ccc(C(c2nnnn2Cc2cccs2)N2CCN(C3CCCC3)CC2)cc1 (stereo not shown) is lower in “hERG current change (%, negative = inhibition) at 1uM” value: 0.834% for the first, -20.8% for the second.

Compared with NC(=O)[C@@H]1CCOc2c(I)cc([N+](=O)[O-])cc2C(=O)N[C@@H](CO)C(=O)NCC(=O)N1, COC(=O)Cc1c(C)c2ccc(OCC(=O)N3CCCC(C)C3)c(C)c2oc1=O (stereo not shown) is lower in “hERG current change (%, negative = inhibition) at 1uM” value: 19.2% for the first, 8.94% for the second.

Compared with COc1cc(CC(=O)O)c([N+](=O)[O-])cc1OC, COc1cc(OC)cc(C(=O)NCC(=O)Nc2ccc(-c3ccccc3)cc2)c1 is higher in “hERG current change (%, negative = inhibition) at 1uM” value: 1.43% for the first, 10.6% for the second.

Going from CC1CCCC2(C1)NC(=S)N(c1ccccc1)N2 (stereo not shown) to O=C(CCS(=O)(=O)Cc1ccccc1)N1CCN(c2ccccc2)CC1, the “hERG current change (%, negative = inhibition) at 1uM” value falls from 6.88% to -5.53%.

First: Cc1ccc(C)c(SCC(=O)OCC(=O)NCCNC(=O)COC(=O)CSc2cc(C)ccc2C)c1
Second: CCOC(=O)c1c(NC(=O)CSc2nnc(Cc3ccccc3)o2)sc(C(C)=O)c1C
The “hERG current change (%, negative = inhibition) at 1uM” value of the first is higher: 9.88% for the first, -16.3% for the second.

First: CN(C)S(=O)(=O)c1cc(NC(=O)COC(=O)C2COc3ccccc3O2)ccc1Cl (stereo not shown)
Second: O=C(Nc1ccc(Cl)c(S(=O)(=O)N2CCOCC2)c1)c1n[nH]c(=O)c2ccccc12
The “hERG current change (%, negative = inhibition) at 1uM” value of the first is lower: 9.63% for the first, 11.7% for the second.

Compared with CCN1C(=O)[C@H]2[C@@H](c3ccc(C)cc3)N3C(=O)N(c4ccc(C)cc4)C(=O)[C@@]3(Cc3ccccc3)[C@H]2C1=O, NC(=O)CC1C(=O)N(c2ccc(F)cc2)C(=O)N1NC(=O)CCc1ccccc1 (stereo not shown) is lower in “hERG current change (%, negative = inhibition) at 1uM” value: 13.7% for the first, 10.6% for the second.

Going from O=C(Nc1ccc(NC(=O)c2ccc(Cl)cc2Cl)cc1)c1ccc2c(c1)OCO2 to O=C(Nc1c(C(=O)N2CCN(c3ccccn3)CC2)oc2ccccc12)c1ccc([N+](=O)[O-])cc1, the “hERG current change (%, negative = inhibition) at 1uM” value falls from 19.1% to -4.07%.

Compared with C[C@H](NC(=O)c1nc[nH]c1C(=O)NCc1ccccc1)C(=O)OC(C)(C)C, CC(OC(=O)CNC(=O)COc1ccccc1)C(=O)N(C)Cc1ccccc1 (stereo not shown) is higher in “hERG current change (%, negative = inhibition) at 1uM” value: -3.26% for the first, 17.2% for the second.

Compared with CCCC1(c2ccccc2)NC(=O)N(CC(=O)N2CC(=O)Nc3ccccc32)C1=O (stereo not shown), O=c1c(-c2cccc([N+](=O)[O-])c2)[n+]([O-])c2ccccc2n1O is higher in “hERG current change (%, negative = inhibition) at 1uM” value: 8.83% for the first, 23% for the second.

Going from CCCCCN(C(=O)CCC(=O)OCc1cccc(F)c1)c1c(N)n(CCCC)c(=O)[nH]c1=O to Cc1ccc(S(=O)(=O)N(C)C)cc1NC(=O)CSc1nc2ccccc2c(=O)n1CC1CCCO1 (stereo not shown), the “hERG current change (%, negative = inhibition) at 1uM” value falls from 10.2% to -8.49%.

Going from CC1CN(Cc2cc(=O)oc3cc(O)c(Cl)cc23)CC(C)O1 (stereo not shown) to Cc1cc(C)n2c(=O)c3ccc(Cl)cc3nc2c1C#N, the “hERG current change (%, negative = inhibition) at 1uM” value falls from 12.3% to 12.2%.

Going from Cc1ccc(S(=O)(=O)N2CCCOC2CNC(=O)C(=O)NCCc2c[nH]c3ccccc23)cc1 (stereo not shown) to CC(=O)O[C@@H]1[C@@H](O)[C@@H](O)[C@H](Oc2c(-c3ccc(O)cc3)oc3c(CC=C(C)C)c(O)cc(O)c3c2=O)O[C@H]1C, the “hERG current change (%, negative = inhibition) at 1uM” value falls from 14.2% to 11.6%.

Compared with CC1(C)CC(=O)C2=C(C1)N(c1ccc(Cl)cc1)C(=O)C2(O)C(F)(F)F (stereo not shown), N#Cc1c(C(F)(F)F)cc(-c2ccco2)nc1SCc1ccncc1 is higher in “hERG current change (%, negative = inhibition) at 1uM” value: -4.33% for the first, 4.12% for the second.
